# Test results taken from PubChem BioAssay AID504374 (National Center for Advancing Translational Sciences (NCATS), 2011).
# Hit rate of the full screen: of about 1,500 compounds, about 100 (6.7%) were called active. Inconclusive results (about 7%) are left out. Calls follow the shape of the dose curve; as a rule, active = well fitted inhibition curve with a large enough effect; inconclusive = small, poorly fitted or top-dose-only effect, or effect the other way; inactive = flat fitted curve, though single readings scatter. The list shows a part of the results.
# Target: Runt-related transcription factor 1 (Homo sapiens) + Core-binding factor subunit beta (Homo sapiens) (UniProt Q01196+Q13951)
# Sequence of UniProt Q01196 (Q01196 whole entry, looked up): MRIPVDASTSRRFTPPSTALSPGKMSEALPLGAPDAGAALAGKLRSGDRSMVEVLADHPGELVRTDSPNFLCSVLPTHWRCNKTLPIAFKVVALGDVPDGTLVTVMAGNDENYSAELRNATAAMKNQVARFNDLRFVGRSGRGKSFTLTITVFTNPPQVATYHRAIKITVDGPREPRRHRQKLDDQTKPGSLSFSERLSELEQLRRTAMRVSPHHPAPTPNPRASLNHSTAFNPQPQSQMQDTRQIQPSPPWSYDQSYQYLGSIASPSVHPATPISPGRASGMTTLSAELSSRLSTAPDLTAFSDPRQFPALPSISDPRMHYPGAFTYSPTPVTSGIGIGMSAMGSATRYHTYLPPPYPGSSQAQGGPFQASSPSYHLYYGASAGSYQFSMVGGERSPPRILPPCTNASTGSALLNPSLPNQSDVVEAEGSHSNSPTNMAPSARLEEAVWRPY
# Sequence of UniProt Q01196 (Q13951 whole entry, looked up): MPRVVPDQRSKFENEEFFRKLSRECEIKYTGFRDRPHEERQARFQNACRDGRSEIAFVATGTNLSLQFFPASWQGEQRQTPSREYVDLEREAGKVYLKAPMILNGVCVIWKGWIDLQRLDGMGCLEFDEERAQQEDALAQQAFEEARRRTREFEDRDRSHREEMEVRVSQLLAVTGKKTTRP
# Assay: qHTS Assay for Compounds Blocking the Interaction Between CBF-beta and RUNX1 for the Treatment of Acute Myeloid Leukemia: Hit Validation; also: nearly all actives have a fitted effect of over 60% in size
# Conditions: AlphaScreen CBFb-His/RUNX1-biotin binding; series mostly up to 59.8 µM; activity, negative = inhibition: at the top concentration
# In short: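 AlphaScreen proximity assay: His-tagged CBF-beta and biotinylated RUNX1 (30 nM each) preincubated 20 min, then compound 15 min, then nickel and streptavidin beads 90 min, all at room temperature; signal read at […]em 440 nm.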
# % is scaled to controls: 0 for no effect and ±100 for the full control effect; potency is read from the fitted curve at half-maximal effect.
SMILES,"activity, negative = inhibition",Potency
O=C(NCCc1ccc(Cl)cc1)Nc1ccc(Cl)cc1,inactive: 1.15%,–
CNC(=O)n1cc(C)c(-c2cccs2)n1,inactive: -1.1%,–
COC(=O)c1ccc(S(=O)(=O)NCc2ccco2)n1C,inactive: -5.37%,–
CC1(C)Cc2c(c(=S)nc(-c3ccccc3)n2Cc2cccnc2)CO1,inactive: -3.11%,–
Cc1ccc(C[n+]2cc(-c3ccc(Cl)cc3)n3c2CCC3)cc1,inactive: -2.88%,–
CCOC(=O)NC1=NCC(C)S1 (stereo not given),inactive: -9.33%,–
COc1cc(-c2noc(C)n2)cc(OC)c1OC,inactive: -0.677%,–
COc1ccc(-c2nc(-c3cccnc3)no2)cc1OC,inactive: -4.88%,–
O=C(O)c1ccc(S(=O)(=O)Nc2cccc(CP(=O)(c3ccccc3)c3ccccc3)c2)cc1,inactive: -1.73%,–
COC(=O)C1=C(C)Nc2c(c(=O)n(C)c(=O)n2C)C1c1cccc(O)c1 (stereo not given),inactive: -2.32%,–
N#CCc1cnc2ccccc2n1,inactive: -24.4%,–
Cc1ccc(CNc2nc(N)c([N+](=O)[O-])c(NCCO)n2)cc1,inactive: -6.25%,–
CC(C)N1CN(c2ccccc2)C(=S)N(c2ccccc2)C1,inactive: 5.92%,–
CCN(CC)c1ncc(C#N)c(N)n1,inactive: -6.57%,–
CCN(CC)S(=O)(=O)c1cccc(C(=O)N/N=C2\CCCC(=O)C2)c1,inactive: -2.55%,–
Clc1ccc(-c2ccccc2)nn1,inactive: -1.75%,–
Cc1nn(C)c(C)c1NC(=O)/C(C#N)=C\N(C)C,inactive: -2.86%,–
CC(C)(C)c1ccc(CCC2OCC(CN3CCOCC3)O2)cc1 (stereo not given),inactive: 1.96%,–
Cn1c(=O)c2cc3ccc(Cl)cc3nc2n(C)c1=O,inactive: 1.09%,–
O=c1c2cc(-c3ccccc3)sc2nc2n1N=C(c1ccccc1)CS2,inactive: -6.28%,–
CCn1c(SCC(=O)Nc2c(C#N)cnn2-c2ccccc2)nnc1-c1cccs1,inactive: -5.3%,–
Cc1ccc(C#CC(C)(O)C(C)(C)C)cn1 (stereo not given),inactive: -2.64%,–
COc1ccc(CN2CCOC2=O)cc1OC,inactive: -4.99%,–
O=C(CN1CCCc2ccccc21)N1CCc2ccccc21,inactive: 7.88%,–
Cc1cc(NC(=O)CN2CCOCC2)n(-c2ccccc2)n1,inactive: -1.1%,–

SMILES,"activity, negative = inhibition",Potency
CCSc1cc(Cl)nc(N)n1,inactive: 1.54%,–
CC(C)(C)c1ccc(/C=N/N2CCN(c3ccccn3)CC2)cc1,inactive: -4.52%,–
N/C(CN1CCSCC1)=N\OCc1c(F)cccc1Cl,inactive: -4.68%,–
CCC(C)(C)C1CCc2[nH]nc(C(=O)N/N=C(\C)c3ccco3)c2C1 (stereo not given),inactive: -1.02%,–
O=C(NC1CCSC1)c1cccc(Cl)c1 (stereo not given),inactive: -7.92%,–
Clc1nc(Oc2ccccc2)nc(-c2cn(-c3ccccc3)c3ccccc23)n1,inactive: 9.1%,–
N#Cc1ccc(-c2cccnc2)nc1SCC(=O)c1ccccc1,inactive: 3.15%,–
CC(C)CC(=O)NC(=S)Nc1ccccc1N1CCCC1,inactive: -17.3%,–
COc1ccc2nc3cc(Cl)ccc3c(C#N)c2c1,inactive: -4.75%,–
Nc1nc(Nc2cccc(Cl)c2)n[nH]1,inactive: 3%,–
Cc1ccc(OCC(=O)N(Cc2ccc(N(C)C)cc2)C2CCS(=O)(=O)C2)cc1C (stereo not given),inactive: -15%,–
COCCNc1c2c(nc3c(-c4ccccc4)c(C)nn13)CCC2,inactive: 0.807%,–
Cc1cc(C)nc(N2N=C(C(F)(F)F)CC2=O)n1,inactive: 2.96%,–
Cc1ccccc1-c1noc(-c2ccccc2C(=O)NCC2CCCO2)n1 (stereo not given),inactive: -6.51%,–
Cc1ccc(Cc2cc(C)n[nH]c2=O)cc1,inactive: 5.27%,–
Cc1cc(N2CCN(C(=O)c3ccco3)CC2)c2ccccc2n1,inactive: -5.64%,–
CCOC(=O)c1c(NC(=S)NC)sc2c1CCCC2,inactive: -4.61%,–
Cc1n[nH]c(C)c1CCC(=O)N/N=C/c1cccs1,inactive: -16.4%,–
COCc1cc(=O)n2[nH]c(-c3cccs3)cc2n1,inactive: -6.05%,–
Cc1cccn(Cc2c(F)cccc2Cl)c1=O,inactive: 7%,–
COc1ccc(C(=O)CSc2nnc3n2CCCN3C(=O)Nc2ccccc2)cc1,inactive: -0.884%,–
COc1ccc(NC(=O)CSc2ccc(-c3ccccn3)nn2)cc1OC,–,active: 4.47 µM
Cn1cc(NC(=O)Nc2ccc(C(F)(F)F)cc2)c(C(F)(F)F)n1,inactive: 8.22%,–
CCCS(=O)(=O)c1c(S(=O)(=O)CCC)c2cnccn2c1C(=O)c1ccc(OC)cc1,inactive: 7.99%,–
c1ccc(-c2ccc(-c3ccccn3)s2)nc1,inactive: 3.74%,–

SMILES,"activity, negative = inhibition",Potency
Cc1c(Cl)cccc1NC(=S)N(CCN(C)C)C(C)c1ccccn1 (stereo not given),–,active: 4.34 µM
Nc1nc(-c2ccccc2)c(N=Nc2ccccc2Cl)s1,–,active: 4.34 µM
CC(C)c1nc2oc3c(N(C)CCO)ncnc3c2c2c1CCC2,inactive: -5.62%,–
COC(=O)c1scc(C)c1S(=O)(=O)Nc1ccc(C)cc1,inactive: -10.9%,–
COc1ccc(CCNc2c3ccccc3nc3ccccc23)cc1OC,inactive: 6.32%,–
CSc1nc(SCC(=O)O)c2sc3nc(-c4ccccc4)c4c(c3c2n1)CCC4,inactive: 9.29%,–
CCN1CCN(Cc2cc(=O)oc3ccc(C)cc23)CC1,inactive: -4.63%,–
N#C/C(=N\Nc1ccccc1)C(=N)N1CCCCCC1,inactive: -7.48%,–
COC(=O)/C=C(\C)N=Nc1c(O)[nH]c2ccccc12,inactive: -4.81%,–
CC(=O)CCn1cc([N+](=O)[O-])nc1C,inactive: 3.83%,–
CCOC(=O)C1=C(C)N(CC(C)C)C(=O)/C1=C\c1cccs1,inactive: -7.54%,–
S=C1SCN(Cc2ccco2)CN1Cc1ccco1,inactive: -6.67%,–
NC(=O)c1cccnc1Oc1ccc(Cl)cc1,inactive: -13%,–
COc1ccc([N+](=O)[O-])c(S(=O)(=O)c2ccccc2)n1,inactive: -1.27%,–
Cc1cnc(NS(=O)(=O)c2ccc(Cl)cc2)c(Br)c1,inactive: -7.79%,–
C/C(=N\Nc1cccc(Cl)c1)C1(C)N(O)C(C)(C)C(c2ccco2)=[N+]1[O-] (stereo not given),inactive: -5.45%,–
S=c1[nH]c2cc3ccccc3cc2[nH]1,inactive: 10.7%,–
Cn1cc(Br)c(NC(=O)/C=C/C(=O)O)n1,inactive: 7.54%,–
CC(C)(C)c1ccc(NC(=S)NCc2cccnc2)cc1,inactive: -3.62%,–
O=C(CCCCl)NC(=S)Nc1ccc(N2CCOCC2)cc1,inactive: 6.2%,–
C=CCSC(CC)(CC)C(N)=O,inactive: -0.298%,–
COc1cccc(C2/C(=C(/O)c3ccccc3)C(=O)C(=O)N2Cc2ccco2)c1 (stereo not given),inactive: -6.74%,–
COC(=O)c1[nH]c2cc(OC)ccc2c1NC(=O)c1c(F)cccc1F,inactive: 3.22%,–
O=C(Oc1c(-c2ccccc2)c(=O)n2c3c(cccc13)CC2)c1ccco1,inactive: -3.57%,–
O=C(OCC1OC(OC(=O)c2cc(O)c(O)c(OC(=O)c3cc(O)c(O)c(O)c3)c2)[C@@H](OC(=O)c2cc(O)c(O)c(OC(=O)c3cc(O)c(O)c(O)c3)c2)C(OC(=O)c2cc(O)c(O)c(OC(=O)c3cc(O)c(O)c(O)c3)c2)C1OC(=O)c1cc(O)c(O)c(OC(=O)c2cc(O)c(O)c(O)c2)c1)c1cc(O)c(O)c(OC(=O)c2cc(O)c(O)c(O)c2)c1 (stereo not given in full),–,active: 0.398 µM
